Assay results from patent US20250084180A1 (MIE UNIVERSITY, published 2025).

How the values were obtained:
Experiment in all cases: cell-based or functional assay
[1] = molecular target: complex of a MAGE-A4 derived peptide and HLA-A2 (human)
[2] = molecular target: complex of a MAGE-A4 derived peptide and HLA-A2 (human); remark: listed apart in the source
[3] = molecular target: complex of a MAGE-A4 derived peptide and HLA-A2 (human); remark: listed apart in the source
[4] = molecular target: complex of a MAGE-A4 derived peptide and HLA-A2 (human); remark: listed apart in the source

- Cell lysis (%), CAR-T cells on SK-MEL-37, Effecter:Target = 10:1 [1]: 33%
- Ratio of Cell lysis to MAGE-A4-zG (1.00), SK-MEL-37, Effecter:Target = 10:1 [1]: 1 ratio
- Cell lysis (%), CAR-T cells on SK-MEL-37, Effecter:Target = 3:1 [2]: 13%
- Ratio of Cell lysis to MAGE-A4-zG (1.00), SK-MEL-37, Effecter:Target = 3:1 [2]: 1 ratio
- Cell lysis (%), CAR-T cells on SK-MEL-37, Effecter:Target = 3:1 (Example 3) [3]: 43%
- Ratio of Cell lysis to MAGE-A4-zG (1.00), SK-MEL-37, Effecter:Target = 3:1 (Example 3) [3]: 1 ratio
- Cell lysis (%), CAR-T cells on SK-MEL-37, Effecter:Target = 1:1 [4]: 18%
- Ratio of Cell lysis to MAGE-A4-zG (1.00), SK-MEL-37, Effecter:Target = 1:1 [4]: 1 ratio
B1: MAGE-A4-zG (other)
chain: QVQLQVQLVQSGAEVKKPGSSVKVSCKASGGTFSSYAISWVRQAPGQGLEWMGGIIPIFGTANYAQKFQGRVTITADKSTSTAYMELSSLRSEDTAVYYCARSPRRAYHDAFDIWGQGTMVTVSSGGGGSGGGGSGGGGSSYELTQPPSMSVAPGKTASITCGGDHIGSKSVHWYQQKPGQAPVLVVYDDSDRPSGIPERFSGSNSGNTATLTISGTQAMDEADYYCLAWDSSTAIFGGGTQLTVLVGQPKANPTVTLFPPSSEELQANKATLVCLISDFYPGAVTVAWKADGSPVKAGVETTKPSKQSNNKYAASSYLSLTPEQWKSHRSYSCQVTHEGSTVEKTVAPTECSARQTRFWVLVVVGGVLACYSLLVTVAFIIFWVRL[not shown - about 120 residues]RSQCMWPRETQLLLEVPPSTEDARSCQFPEEERGERSAEEKGRLGDLWV

- Cell lysis (%), CAR-T cells on SK-MEL-37, Effecter:Target = 3:1 (Example 3) [3]: 98%
- Ratio of Cell lysis to MAGE-A4-zG (1.00), SK-MEL-37, Effecter:Target = 3:1 (Example 3) [3]: 2.28 ratio
- Cell lysis (%), CAR-T cells on SK-MEL-37, Effecter:Target = 1:1 [4]: 36%
- Ratio of Cell lysis to MAGE-A4-zG (1.00), SK-MEL-37, Effecter:Target = 1:1 [4]: 2 ratio
B2: MAGE-A4-zG-Em4 (other)
chain: QVQLQVQLVQSGAEVKKPGSSVKVSCKASGGTFSSYAISWVRQAPGQGLEWMGGIIPIFGTANYAQKFQGRVTITADKSTSTAYMELSSLRSEDTAVYYCARSPRRAYHDAFDIWGQGTMVTVSSGGGGSGGGGSGGGGSSYELTQPPSMSVAPGKTASITCGGDHIGSKSVHWYQQKPGQAPVLVVYDDSDRPSGIPERFEGSNSGNEAELTISGTQAMDEADYYCLAWDSSTAIFGGGTQLTVLVGQPKANPTVTLFPPSSEELQANKATLVCLISDFYPGAVTVAWKADGSPVKAGVETTKPSKQSNNKYAASSYLSLTPEQWKSHRSYSCQVTHEGSTVEKTVAPTECSARQTRFWVLVVVGGVLACYSLLVTVAFIIFWVRL[not shown - about 120 residues]RSQCMWPRETQLLLEVPPSTEDARSCQFPEEERGERSAEEKGRLGDLWV

- Cell lysis (%), CAR-T cells on SK-MEL-37, Effecter:Target = 3:1 (Example 3) [3]: 84%
- Ratio of Cell lysis to MAGE-A4-zG (1.00), SK-MEL-37, Effecter:Target = 3:1 (Example 3) [3]: 1.95 ratio
- Cell lysis (%), CAR-T cells on SK-MEL-37, Effecter:Target = 1:1 [4]: 34%
- Ratio of Cell lysis to MAGE-A4-zG (1.00), SK-MEL-37, Effecter:Target = 1:1 [4]: 1.89 ratio
B3: MAGE-A4-zG-Dm5 (other)
chain: QVQLQVQLVQSGAEVKKPGSSVKVSCKASGGTFSSYAISWVRQAPGQGLEWMGGIIPIFGTANYAQKFQGRVTITADKSTSTAYMELSSLRSEDTAVYYCARSPRRAYHDAFDIWGQGTMVTVSSGGGGSGGGGSGGGGSSYELTQPPSMSVAPGKTASITCGGDHIGSKSVHWYQQKPGQAPVLVVYDDSDRPSGIPDRFSGSNSGNTATLDIDGTQAMDEADYYCLAWDSSTAIFGGGTQLTVLVGQPKANPTVTLFPPSSEELQANKATLVCLISDFYPGAVTVAWKADGSPVKAGVETTKPSKQSNNKYAASSYLSLTPEQWKSHRSYSCQVTHEGSTVEKTVAPTECSARQTRFWVLVVVGGVLACYSLLVTVAFIIFWVRL[not shown - about 120 residues]RSQCMWPRETQLLLEVPPSTEDARSCQFPEEERGERSAEEKGRLGDLWV

One block for each binder: values may come before it.
